The target of this assay is Genome polyprotein (dengue virus type 2) (UniProt P29990).
Setting [1] is: Thailand/16681/1984, Concentration 25.0 uM, Number of replicates 1.0.

Among all 2,000 compounds or so, about 110 (5.5%) showed an effect of 50% or more. The list shows a part of the results.

Inhibition data for 21 compounds are collected here from ChEMBL document CHEMBL5606460, “ASAP - DENV-2 NS2B-NS3 protease fluorescence single point” (2024).

For the compound `O=Cc1ccc(N2CCC(C(=O)N3CCN(C(c4ccc(F)cc4)c4ccc(F)cc4)CC3)CC2)cc1`, under setting [1], the inhibition stood at 1.35%.
Regarding `Cc1cc(CO)c2cccc(C[C@H](NC(=O)c3cccc(Cn4cncn4)c3)C(=O)O)c2n1`, the inhibition worked out at 2.21% (Thailand/16681/1984, Concentration 49.95 uM, Number of replicates 2.0, Standard deviation 0.4600859565255321 %) and 6.14% (Thailand/16681/1984, Concentration 99.9 uM, Number of replicates 2.0, Standard deviation 0.9708422030300133 %).
On to `CN1CCN(c2ccc(CNCc3cccc(S(N)(=O)=O)c3)cc2)CC1`, for which the inhibition (Thailand/16681/1984, Concentration 49.5 uM, Number of replicates 2.0, Standard deviation 0.282786134545178 %) was -2.84%; the inhibition (Thailand/16681/1984, Concentration 99.01 uM, Number of replicates 2.0, Standard deviation 0.07602768850443749 %) was -2.04%; the inhibition (Thailand/16681/1984, Concentration 198.0 uM, Number of replicates 2.0, Standard deviation 0.4014635677569415 %) was -1.64%.
As for `O=C1NCc2ccccc2C12CCNCC2`, the inhibition is 0.377% (Thailand/16681/1984, Concentration 49.5 uM, Number of replicates 2.0, Standard deviation 0.5161955896985736 %); 0.722% (Thailand/16681/1984, Concentration 99.01 uM, Number of replicates 2.0, Standard deviation 0.21727012294044853 %); 0.126% (Thailand/16681/1984, Concentration 198.0 uM, Number of replicates 2.0, Standard deviation 1.3604452261475042 %).
In the case of `O=C(NCc1ccccc1)c1cc(O)ccc1NS(=O)(=O)c1ccc(Oc2ccccc2Cl)cc1`, the inhibition stood at 33.5% (Thailand/16681/1984, Concentration 49.5 uM, Number of replicates 2.0, Standard deviation 0.5844803568567073 %); 55.3% (Thailand/16681/1984, Concentration 99.01 uM, Number of replicates 2.0, Standard deviation 0.18145668135528656 %); 60.6% (Thailand/16681/1984, Concentration 198.0 uM, Number of replicates 2.0, Standard deviation 0.23302823954279267 %).
Regarding `O=Cc1ccc(N2CCC(C(=O)NCc3ccccc3-n3cccn3)CC2)cc1`, the inhibition under setting [1] was found to be 13.9%.
As for `COc1cc(CN2CC(O)C2)ccc1OC[C@@H](O)CN1CCC(O)CC1`, the inhibition runs as follows: (Thailand/16681/1984, Concentration 49.5 uM, Number of replicates 2.0, Standard deviation 0.3903057164492887 %) -0.64%; (Thailand/16681/1984, Concentration 99.01 uM, Number of replicates 2.0, Standard deviation 0.677644680011159 %) -0.711%; (Thailand/16681/1984, Concentration 198.0 uM, Number of replicates 2.0, Standard deviation 1.5326209607264492 %) -0.547%.
On to `COc1cccc(Cn2cc(C3CCNCC3)c(C)n2)n1`, for which the inhibition is -3.33% (Thailand/16681/1984, Concentration 49.5 uM, Number of replicates 2.0, Standard deviation 0.5897033629115713 %); -3.64% (Thailand/16681/1984, Concentration 99.01 uM, Number of replicates 2.0, Standard deviation 0.7206939136220955 %); -3.79% (Thailand/16681/1984, Concentration 198.0 uM, Number of replicates 2.0, Standard deviation 2.0772079346215944 %).
For the compound `NS(=O)(=O)c1cccc(CN2CC[C@H](c3c[nH]c4ccccc34)C2)c1`, the inhibition (Thailand/16681/1984, Concentration 49.5 uM, Number of replicates 2.0, Standard deviation 1.1633260593891446 %) was -1.78%; the inhibition (Thailand/16681/1984, Concentration 99.01 uM, Number of replicates 2.0, Standard deviation 1.588607527736017 %) came to 0.04%; the inhibition (Thailand/16681/1984, Concentration 198.0 uM, Number of replicates 2.0, Standard deviation 1.7864683947344713 %) worked out at 2.15%.
`O=Cc1ccc(N2CCC(C(=O)N[C@@H](Cc3ccccc3)c3ccccc3)CC2)cc1`: the inhibition under setting [1] stood at 4.84%.
With `CC(C)(C)N(C[C@H](O)c1ccc(O)c(CO)c1)C(=O)C1CCN(c2ccc(C=O)cc2)CC1`, the inhibition under setting [1] came to 12.9%.
In the case of `Cc1cc(CO)c2cccc(Nc3nonc3C(N)=O)c2n1`, the inhibition is, setting by setting: (Thailand/16681/1984, Concentration 49.95 uM, Number of replicates 2.0, Standard deviation 1.5271718368293243 %) 11%; (Thailand/16681/1984, Concentration 99.9 uM, Number of replicates 2.0, Standard deviation 3.697399383401008 %) 23.8%.
As to `COc1ccccc1C[C@H](C)N(C)C(=O)C1CCN(c2ccc(C=O)cc2)CC1`, the inhibition under setting [1] amounted to 16.3%.
As for `Cc1cc(CO)c2cccc(Cc3cccc(NC(=O)Cc4c(C)c5c(=O)[nH]n(C)c5[nH]c4=O)c3)c2n1`, the inhibition was determined as 38.4% (Thailand/16681/1984, Concentration 49.95 uM, Number of replicates 2.0, Standard deviation 0.9721935995806666 %) and 65.6% (Thailand/16681/1984, Concentration 99.9 uM, Number of replicates 2.0, Standard deviation 1.6660426680996274 %).
On to `Cc1cc(CO)c2cccc(Cc3ccccc3C(=O)N3CCCNCC3)c2n1`, for which the inhibition was -2.37% (Thailand/16681/1984, Concentration 49.95 uM, Number of replicates 2.0, Standard deviation 1.9396415483127036 %) and 5.47% (Thailand/16681/1984, Concentration 99.9 uM, Number of replicates 2.0, Standard deviation 2.1516438209514726 %).
As to `CC(C)(C)N(Cc1cccnc1)C(=O)C1CCN(c2ccc(C=O)cc2)CC1`, under setting [1], the inhibition amounted to 15.3%.
Take `O=C1NCCC[C@@H]1CNS(=O)(=O)c1ccc(Oc2ccccc2Cl)cc1`: the inhibition (Thailand/16681/1984, Concentration 49.5 uM, Number of replicates 2.0, Standard deviation 0.9940716071741866 %) is -2.68%; the inhibition (Thailand/16681/1984, Concentration 99.01 uM, Number of replicates 2.0, Standard deviation 0.27557480876496404 %) is -0.801%; the inhibition (Thailand/16681/1984, Concentration 198.0 uM, Number of replicates 2.0, Standard deviation 0.9840594547230297 %) was 1.79%.
For the compound `Cc1cc(CO)c2cccc(C[C@H](NC(=O)CCC3CCNCC3)C(=O)O)c2n1`, the inhibition runs as follows: (Thailand/16681/1984, Concentration 49.95 uM, Number of replicates 2.0, Standard deviation 0.656686674900359 %) -4.67%; (Thailand/16681/1984, Concentration 99.9 uM, Number of replicates 2.0, Standard deviation 0.4526541184339091 %) -4.34%.
For the compound `NS(=O)(=O)c1ccc(C2CCN(Cc3c[nH]c4ccccc34)CC2)cc1`, the inhibition reads like this: (Thailand/16681/1984, Concentration 49.5 uM, Number of replicates 2.0, Standard deviation 0.5777028907350644 %) 1.89%; (Thailand/16681/1984, Concentration 99.01 uM, Number of replicates 2.0, Standard deviation 0.29606761803532494 %) 3.74%; (Thailand/16681/1984, Concentration 198.0 uM, Number of replicates 2.0, Standard deviation 0.9562405116571111 %) 7.14%.
With `Cc1[nH]c(=O)c(NC(=O)C2CCN(c3ccc(C=O)cc3)CC2)cc1Br`, under setting [1], the inhibition came out at 27.8%.
For the compound `Cn1cccc(CN2CCC(c3c[nH]c4cccnc34)CC2)c1=O`, the inhibition is, setting by setting: (Thailand/16681/1984, Concentration 49.5 uM, Number of replicates 2.0, Standard deviation 0.020617521795104676 %) 0.143%; (Thailand/16681/1984, Concentration 99.01 uM, Number of replicates 2.0, Standard deviation 0.8828423097135296 %) 0.656%; (Thailand/16681/1984, Concentration 198.0 uM, Number of replicates 2.0, Standard deviation 0.47379063652157694 %) 1.17%.

A word on the inhibition: it is the change of the read-out against control, counted positive when it falls.
